Among all 43,000 compounds or so, about 200 (0.47%) were called active. Inconclusive results (about 12%) are left out. Calls come from the whole dose curve; as a rule, active = well fitted cell-killing curve with a large enough effect; inconclusive = small, poorly fitted or top-dose-only effect, or effect the other way; inactive = flat fitted curve, though single readings scatter. Some of the results follow.
% is set by controls: 0 for no effect and ±100 for the full control effect.

The assay in a line: Cell viability qHTS assay in S16 Pmp22-F2sN cells. Note: nearly all actives have a fitted effect of over 65% in size. The conditions noted are these: S16 Pmp22-F2sN Schwann cells viability, CellTiter-Glo, 24 h; series mostly up to 57.5 µM; activity change, negative = cytotoxicity: at the top concentration. In a few lines: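 Viability was measured by CellTiter-Glo luminescence (15 min, room temperature). This followed 24 h at 37 °C of compound exposure (23 nL pin transfer) in S16 Pmp22-F2sN Schwann cells, 500-1,000 per well.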
A general note: Quantitative high-throughput screening tests each substance at several concentrations.
In the case of `CCC(C)(C)NC(=O)C(NS(=O)(=O)c1cccs1)c1ccccc1` (configuration not stated), the “activity change, negative = cytotoxicity” value was inactive: 1.76%. Next, `Cc1cc(F)ccc1Nc1nc2ccc(Cl)cc2n2cnnc12`: inactive: 13.5%. As to `CCOC(=O)c1ccc(-n2c(CCC(=O)O)ccc2-c2ccccc2)cc1O`, the “activity change, negative = cytotoxicity” value was inactive: -2.4%.

`O=C(Cc1ccc(Cl)cc1)NCCc1csc2nc(-c3ccccc3F)nn12`: the “activity change, negative = cytotoxicity” value was inactive: -26.1%. As to `O=C(Nc1ccc(F)cc1F)C1CCN(C(=O)c2cnn(-c3ccccc3)c2-n2cccc2)CC1`, the “activity change, negative = cytotoxicity” value was inactive: -11.7%. With `C=CCC(CC=C)(CNC(=O)C(=O)Nc1ccc(Br)cc1)c1ccc(OC)c(OC)c1`, the “activity change, negative = cytotoxicity” value is inactive: 9.34%. As for `CCCc1nnc(SCc2cc(=O)c3c(C)cc(C)cc3[nH]2)n1C`, the “activity change, negative = cytotoxicity” value was inactive: 13.8%.

As for `CCc1nnc(NC(=O)CSc2nccn2Cc2ccc(Cl)cc2)s1`, the “activity change, negative = cytotoxicity” value was inactive: 5.45%. Turning to `CCc1ccc(CNC(=O)Cn2nc(C)c3nn(-c4ccc(Cl)cc4)c(C)c3c2=O)cc1`, the “activity change, negative = cytotoxicity” value is inactive: 1.39%. On to `CCOc1ccc(NS(=O)(=O)c2c(C)nc3sc(CC)nn3c2=O)cc1`, for which the “activity change, negative = cytotoxicity” value was inactive: -14.3%. Next, `COCCNC(=O)c1ccc2c(c1)ncn2-c1cc(C)ccc1OC`: inactive: -2.4%; `Cn1cccc1-c1cc2n(n1)CCC(=O)N2CCCC(=O)NCc1cccc(Cl)c1`: inactive: -15.1%; `O=C(NCc1cccc(Cl)c1)c1cnc(N2CCOCC2)c2ccccc12`: inactive: 18.5%. To `Cc1cc(C)cc(NC(=O)CCn2cnc3ccccc3c2=O)c1` belongs inactive: 1.96%; to `CCOc1ccccc1NC(=O)Cn1c(=O)n(-c2ccc(C)cc2)c(=O)c2c1cnn2C`, inactive: 2%. Next, `CSc1ccc(CCNC(=O)c2ccc(-n3c(C)cc4c3CCC(C)C4)cc2)cc1` (configuration not stated): inactive: -6.71%; `COc1ccc2c(c1)c(CC(=O)Nc1c(C)cccc1C)c(C)n2C(=O)c1ccc(Cl)cc1`: inactive: 10.1%; `COc1ccc(OCC(=O)NCc2ccc3c(c2)CCN3C(=O)c2cccc(C)c2)cc1`: inactive: -21.6%. On to `Cc1ccc(C)c(N2CCN(C(=O)c3c(C)oc4nc(C)nc(N5CCOCC5)c34)CC2)c1`, for which the “activity change, negative = cytotoxicity” value is inactive: -13.2%. With `CCCCC(=O)OC1=CN(Cc2ccccc2)S(=O)(=O)c2ccccc21`, the “activity change, negative = cytotoxicity” value is inactive: -2.54%. `COc1ccc(NC(=O)c2ccc(NC(=O)CCS(=O)(=O)c3cccs3)cc2)cc1Cl`: the “activity change, negative = cytotoxicity” value was inactive: 14.4%. Next, `Cc1ccc(-n2nnnc2SCC(=O)NCCc2ccccc2)cc1C`: inactive: 5.56%. Next, `CCOc1ccc(N(CC(=O)OC)S(=O)(=O)c2ccc3c(c2)n(C)c(=O)c(=O)n3C)cc1`: inactive: -3.26%; `CCC(C)NC(=O)Cn1c(=O)n(-c2ccc(Cl)cc2)c(=O)c2c3c(sc21)CCCC3` (configuration not stated): inactive: 3.2%.

As for `C=CCc1ccccc1OCCSc1nc(-c2ccccc2F)nc2cc(=O)[nH]n12`, the “activity change, negative = cytotoxicity” value was inactive: -17.6%. To `CSc1ncc(C(=O)NCc2cccc(C)c2)c(-c2ccccc2)n1` belongs inactive: -4.47%; to `COc1ccccc1/C=C/C(=O)Nc1nc2n(n1)C(c1ccc(F)cc1)C=C(c1ccccc1)N2` (configuration not stated), inactive: 1.15%; to `Cc1ccc(OCCn2c(C3CC(=O)N(Cc4ccc(F)cc4)C3)nc3ccccc32)c(C)c1` (configuration not stated), inactive: -1.24%. As to `Cc1cc(C)cc(-n2ccnc2SCC(=O)Nc2ccccc2F)c1`, the “activity change, negative = cytotoxicity” value is inactive: -0.59%.

`Cc1cccc(NC(=O)c2c(NC(=O)c3ccccc3)sc3c2CCC3)c1`: the “activity change, negative = cytotoxicity” value is inactive: 1.96%. Next, `COc1ccc(C(=O)c2cn(Cc3ccccc3OC)c3cc4c(cc3c2=O)OCO4)cc1`: inactive: -1.95%; `COc1ccc(CNC(=O)Cn2cccc2C(=O)c2ccccc2C)cc1`: inactive: 2.03%. Next, `Cc1cccc(N2CCN(c3nc4ccccc4c4nnc(C)n34)CC2)c1C`: inactive: 3.15%; `CCN(CC)C(=O)c1sc2c(c1C)c(=O)n(-c1ccc(OC)cc1OC)c(=O)n2CC(=O)Nc1ccccc1`: inactive: -13.6%. For the compound `COC(=O)c1ccc(NC(=O)CC2C(=O)N(c3ccccc3)C(=O)N2Cc2cccs2)cc1` (configuration not stated), the “activity change, negative = cytotoxicity” value was inactive: 22.2%. To `Cc1cccc(-n2ncc3c(NNC(=O)c4ccccc4Cl)ncnc32)c1` belongs inactive: 5.53%; to `COc1ccc(-c2ccc(=O)n(CC(=O)Nc3cc(OC)ccc3OC)n2)cc1`, inactive: -6.99%; to `O=c1[nH]c(C2CCCN(S(=O)(=O)c3ccccc3)C2)nc2c1nnn2Cc1ccccc1Br` (configuration not stated), inactive: 15.8%.

With `CCOC(=O)c1cccc(NC(=O)Nc2c(C)n(C)n(-c3ccccc3)c2=O)c1`, the “activity change, negative = cytotoxicity” value is inactive: -9.97%. Next, `COc1ccc(CNC(=O)c2cc(-c3ccc(Br)s3)nc3ccccc23)cc1`: inactive: -3.86%; `Cc1ccc(C)c(Nc2nn3c(=O)c4ccc(C(=O)NCc5ccccc5)cc4nc3s2)c1`: inactive: 21.7%.

On to `O=C(CN1C(=O)COc2ccc(S(=O)(=O)N3CCCCCC3)cc21)N1CCN(c2ccc(Cl)cc2)CC1`, for which the “activity change, negative = cytotoxicity” value is inactive: -2.91%. As for `CCOC(=O)c1ccc(NC(=O)CC(C)n2nc(C)cc2C)cc1` (configuration not stated), the “activity change, negative = cytotoxicity” value was inactive: -15.9%.

For the compound `COc1cc(NC(=O)Cc2noc3ccccc23)cc(OC)c1OC`, the “activity change, negative = cytotoxicity” value was inactive: -6.65%. Regarding `CCS(=O)(=O)NCCc1csc2nc(-c3ccc(OC)cc3)nn12`, the “activity change, negative = cytotoxicity” value is inactive: 0.669%. To `COc1ccc(OC)c(S(=O)(=O)NCCS(=O)(=O)N2CCN(c3ccccc3F)CC2)c1` belongs inactive: -6.97%. As to `CCc1cnc2c(c1SCc1cc(OC)cc(OC)c1)c(=O)n(C)c(=O)n2C`, the “activity change, negative = cytotoxicity” value was inactive: 2.9%.

Values taken from PubChem BioAssay AID1508642 (National Center for Advancing Translational Sciences (NCATS), 2021).
